According to paper PMC9911399, “Two distinct binding modes provide the RNA-binding protein RbFox with extraordinary sequence specificity”:
Numbering of substitutions follows the chain as printed; changes in the protein carry UniProt numbers. The list shows a part of the results.

T1: RBFOX1 RRM RbFoxmut (Fox-RRM*) (Homo sapiens, UniProt Q9NWB1 109-208, R118D;E147R;N151S;E152T)
T1 sequence: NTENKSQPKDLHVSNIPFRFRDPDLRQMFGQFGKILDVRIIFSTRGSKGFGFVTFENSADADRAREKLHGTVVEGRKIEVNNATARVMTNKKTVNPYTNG

B1: GGUAUGU (DNA:RNA)
RNA: GGGAGACCGGAAUUCAGAUUGUCCGGUAUGUUUAAAUCCCGUCGUAGCCACCA
DNA 1: CAATCTGAATTCCGGTCTCCC
DNA 2: TGGTGGCTACGACGGGATT
B2: GUUAAUG (DNA:RNA)
RNA: B1 RNA with G26U, U29A, G30U, U31G
DNA 1: CAATCTGAATTCCGGTCTCCC
DNA 2: TGGTGGCTACGACGGGATT
B3: UCUGAUA (DNA:RNA)
RNA: B1 RNA with G25U, G26C, A28G, U29A, G30U, U31A
DNA 1: CAATCTGAATTCCGGTCTCCC
DNA 2: TGGTGGCTACGACGGGATT
B4: AUUCAGG (DNA:RNA)
RNA: B1 RNA with G25A, G26U, A28C, U29A, U31G
DNA 1: CAATCTGAATTCCGGTCTCCC
DNA 2: TGGTGGCTACGACGGGATT
B5: GUUACUC (DNA:RNA)
RNA: B1 RNA with G26U, U29C, G30U, U31C
DNA 1: CAATCTGAATTCCGGTCTCCC
DNA 2: TGGTGGCTACGACGGGATT
B6: AAGGUUU (DNA:RNA)
RNA: B1 RNA with G25A, G26A, U27G, A28G, G30U
DNA 1: CAATCTGAATTCCGGTCTCCC
DNA 2: TGGTGGCTACGACGGGATT
B7: GUGCUUA (DNA:RNA)
RNA: B1 RNA with G26U, U27G, A28C, G30U, U31A
DNA 1: CAATCTGAATTCCGGTCTCCC
DNA 2: TGGTGGCTACGACGGGATT
B8: UUCGCCG (DNA:RNA)
RNA: GGGAGACCGGAAUUCAGAUUGUCCUUCGCCGUUAAAUCCCGUCGUAGCCACCA
DNA 1: CAATCTGAATTCCGGTCTCCC
DNA 2: TGGTGGCTACGACGGGATT
B9: CCGGCAA (DNA:RNA)
RNA: B8 RNA with U25C, U26C, C27G, C30A, G31A
DNA 1: CAATCTGAATTCCGGTCTCCC
DNA 2: TGGTGGCTACGACGGGATT
B10: AACCGAG (DNA:RNA)
RNA: B8 RNA with U25A, U26A, G28C, C29G, C30A
DNA 1: CAATCTGAATTCCGGTCTCCC
DNA 2: TGGTGGCTACGACGGGATT
B11: GCAAAGG (DNA:RNA)
RNA: B1 RNA with G26C, U27A, U29A, U31G
DNA 1: CAATCTGAATTCCGGTCTCCC
DNA 2: TGGTGGCTACGACGGGATT
B12: AGUCUCG (DNA:RNA)
RNA: B1 RNA with G25A, A28C, G30C, U31G
DNA 1: CAATCTGAATTCCGGTCTCCC
DNA 2: TGGTGGCTACGACGGGATT
B13: AGUAGCG (DNA:RNA)
RNA: B1 RNA with G25A, U29G, G30C, U31G
DNA 1: CAATCTGAATTCCGGTCTCCC
DNA 2: TGGTGGCTACGACGGGATT
B14: AAGCCAU (DNA:RNA)
RNA: B1 RNA with G25A, G26A, U27G, A28C, U29C, G30A
DNA 1: CAATCTGAATTCCGGTCTCCC
DNA 2: TGGTGGCTACGACGGGATT
B15: UCGGCAG (DNA:RNA)
RNA: B8 RNA with U26C, C27G, C30A
DNA 1: CAATCTGAATTCCGGTCTCCC
DNA 2: TGGTGGCTACGACGGGATT
B16: UUUCCCG (DNA:RNA)
RNA: B8 RNA with C27U, G28C
DNA 1: CAATCTGAATTCCGGTCTCCC
DNA 2: TGGTGGCTACGACGGGATT
B17: AUCCGCC (DNA:RNA)
RNA: B8 RNA with U25A, G28C, C29G, G31C
DNA 1: CAATCTGAATTCCGGTCTCCC
DNA 2: TGGTGGCTACGACGGGATT
B18: UAAGUGG (DNA:RNA)
RNA: B8 RNA with U26A, C27A, C29U, C30G
DNA 1: CAATCTGAATTCCGGTCTCCC
DNA 2: TGGTGGCTACGACGGGATT
B19: AGCAUCA (DNA:RNA)
RNA: B1 RNA with G25A, U27C, G30C, U31A
DNA 1: CAATCTGAATTCCGGTCTCCC
DNA 2: TGGTGGCTACGACGGGATT
B20: CUGAUGA (DNA:RNA)
RNA: B1 RNA with G25C, G26U, U27G, U31A
DNA 1: CAATCTGAATTCCGGTCTCCC
DNA 2: TGGTGGCTACGACGGGATT
B21: GCAAGCC (DNA:RNA)
RNA: B1 RNA with G26C, U27A, U29G, G30C, U31C
DNA 1: CAATCTGAATTCCGGTCTCCC
DNA 2: TGGTGGCTACGACGGGATT
B22: GCAUAUG (DNA:RNA)
RNA: B1 RNA with G26C, U27A, A28U, U29A, G30U, U31G
DNA 1: CAATCTGAATTCCGGTCTCCC
DNA 2: TGGTGGCTACGACGGGATT
B23: UUUGAUA (DNA:RNA)
RNA: B8 RNA with C27U, C29A, C30U, G31A
DNA 1: CAATCTGAATTCCGGTCTCCC
DNA 2: TGGTGGCTACGACGGGATT
B24: GUUAUAG (DNA:RNA)
RNA: B1 RNA with G26U, G30A, U31G
DNA 1: CAATCTGAATTCCGGTCTCCC
DNA 2: TGGTGGCTACGACGGGATT
B25: GGACGCA (DNA:RNA)
RNA: B1 RNA with U27A, A28C, U29G, G30C, U31A
DNA 1: CAATCTGAATTCCGGTCTCCC
DNA 2: TGGTGGCTACGACGGGATT
B26: CCUGGAA (DNA:RNA)
RNA: B1 RNA with G25C, G26C, A28G, U29G, G30A, U31A
DNA 1: CAATCTGAATTCCGGTCTCCC
DNA 2: TGGTGGCTACGACGGGATT
B27: GAGCGUU (DNA:RNA)
RNA: B1 RNA with G26A, U27G, A28C, U29G, G30U
DNA 1: CAATCTGAATTCCGGTCTCCC
DNA 2: TGGTGGCTACGACGGGATT
B28: CUUCUGC (DNA:RNA)
RNA: B1 RNA with G25C, G26U, A28C, U31C
DNA 1: CAATCTGAATTCCGGTCTCCC
DNA 2: TGGTGGCTACGACGGGATT
B29: AUAUUAA (DNA:RNA)
RNA: B1 RNA with G25A, G26U, U27A, A28U, G30A, U31A
DNA 1: CAATCTGAATTCCGGTCTCCC
DNA 2: TGGTGGCTACGACGGGATT
B30: UUAUACC (DNA:RNA)
RNA: B8 RNA with C27A, G28U, C29A, G31C
DNA 1: CAATCTGAATTCCGGTCTCCC
DNA 2: TGGTGGCTACGACGGGATT
B31: UACCCGG (DNA:RNA)
RNA: B8 RNA with U26A, G28C, C30G
DNA 1: CAATCTGAATTCCGGTCTCCC
DNA 2: TGGTGGCTACGACGGGATT

What follows are binders tested against T1, RBFOX1 RRM RbFoxmut (Fox-RRM*) (assay: EMSA; HiTS-Eq, 1 nM pool, 10 min; buffer printed only for the single-RNA assays: 10 mM Tris pH 7.5, 150 mM NaCl, 3.4 mM EDTA, 0.001% NP-40, 30 C). Conditions: tags: His6 N-terminal (pET28a); label: 5' 32P.
Procedure, shortened: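 These values rest on relative association constants, computed from read-count changes of each RNA species versus the control reaction and normalised to the cognate motif. Reads came from free RNA recovered by 8% native PAGE after purified RbFox RRM (wild type or mutant) at increasing concentrations was equilibrated for 10 min in 50 µL with 1 nM of a 5′-radiolabelled pool with 7 randomized nucleotides and DNA-annealed flanks.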

Row | Binder | binding signal
1 | B1 | 0.662 KA relative to UGCAUGU
2 | B2 | 0.138 KA relative to UGCAUGU
3 | B3 | 0.0872 KA relative to UGCAUGU
4 | B4 | 0.0936 KA relative to UGCAUGU
5 | B5 | 0.0779 KA relative to UGCAUGU
6 | B6 | 0.0775 KA relative to UGCAUGU
7 | B7 | 0.133 KA relative to UGCAUGU
8 | B8 | 0.0946 KA relative to UGCAUGU
9 | B9 | 0.0698 KA relative to UGCAUGU
10 | B10 | 0.0834 KA relative to UGCAUGU
11 | B11 | 0.0716 KA relative to UGCAUGU
12 | B12 | 0.197 KA relative to UGCAUGU
13 | B13 | 0.12 KA relative to UGCAUGU
14 | B14 | 0.0896 KA relative to UGCAUGU
15 | B15 | 0.0804 KA relative to UGCAUGU
16 | B16 | 0.101 KA relative to UGCAUGU

Row | Binder | binding signal
17 | B17 | 0.107 KA relative to UGCAUGU
18 | B18 | 0.102 KA relative to UGCAUGU
19 | B19 | 0.233 KA relative to UGCAUGU
20 | B20 | 0.0926 KA relative to UGCAUGU
21 | B21 | 0.0526 KA relative to UGCAUGU
22 | B22 | 0.197 KA relative to UGCAUGU
23 | B23 | 0.0954 KA relative to UGCAUGU
24 | B24 | 0.151 KA relative to UGCAUGU
25 | B25 | 0.12 KA relative to UGCAUGU
26 | B26 | 0.15 KA relative to UGCAUGU
27 | B27 | 0.0902 KA relative to UGCAUGU
28 | B28 | 0.103 KA relative to UGCAUGU
29 | B29 | 0.145 KA relative to UGCAUGU
30 | B30 | 0.0905 KA relative to UGCAUGU
31 | B31 | 0.0588 KA relative to UGCAUGU
